From patent publication US20230125173A1 (HCW BIOLOGICS, published 2023) come the findings set out here.

The target in the assay is T1, TGFβ Receptor II/IL-15RαSu fusion protein (human).
T1 construct: also called TGFβR/IL-15RαSu; TGFR/IL15RαSu
T1 chain: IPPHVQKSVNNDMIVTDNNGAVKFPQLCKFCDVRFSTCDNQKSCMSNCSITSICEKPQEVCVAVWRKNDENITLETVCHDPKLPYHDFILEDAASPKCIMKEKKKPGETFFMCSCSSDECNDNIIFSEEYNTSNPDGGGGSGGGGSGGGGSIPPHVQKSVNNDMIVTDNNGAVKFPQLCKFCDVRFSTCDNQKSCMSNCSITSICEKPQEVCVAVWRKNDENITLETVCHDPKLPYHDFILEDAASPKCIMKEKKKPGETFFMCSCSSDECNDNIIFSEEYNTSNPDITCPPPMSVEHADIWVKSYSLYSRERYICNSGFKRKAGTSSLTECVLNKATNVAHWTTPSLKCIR
The assay is described as follows: co-expression in CHO-K1 cells, complex formation. An excerpt:
Co-expression of the two constructs in CHO-K1 cells allowed for formation and secretion of the soluble TGFβR/TF/IL-15:TGFβR/IL-15RαSu protein complex (referred to as TGFRt15-TGFRs), which can be purified by anti-TF IgG1 affinity and other chromatography methods.

B1: TGFR/TF/IL15D8N fusion protein (other)
chain: IPPHVQKSVNNDMIVTDNNGAVKFPQLCKFCDVRFSTCDNQKSCMSNCSITSICEKPQEVCVAVWRKNDENITLETVCHDPKLPYHDFILEDAASPKCIMKEKKKPGETFFMCSCSSDECNDNIIFSEEYNTSNPDGGGGSGGGGSGGGGSIPPHVQKSVNNDMIVTDNNGAVKFPQLCKFCDVRFSTCDNQKSCMSNCSITSICEKPQEVCVAVWRKNDENITLETVCHDPKLPYHDFILEDAASPKCIMKEKKKPGETFFMCSCSSDECNDNIIFSEEYNTSNPDSGTTNTVAAYNLTWKSTNFKTILEWEPKPVNQVYTVQISTKSGDWKSKCFYTTDTECDLTDEIVKDVKQTYLARVFSYPAGNVESTGSAGEPLYENSPEFTPYLETNLGQPTIQSFEQVGTKVNVTVEDERTLVRRNNTFLSLRDVFGKDLIYTLYYWKSSSSGKKTAKTNTNEFLIDVDKGENYCFSVQAVIPSRTVNRKSTDSPVECMGQEKGEFRE[omitted - about 120 residues with changes]
notes: First chain of TGFRt15*-TGFRs; Residue limits counted from the printed signal peptide (17 residues)
On to B1, for which the binding result is “binds”.
